According to PubChem BioAssay AID1466 (National Center for Advancing Translational Sciences (NCATS), 2008):
Among all 200,000 compounds or so, about 10 (0.005%) were called active. Inconclusive means that the source gave no clear call. Such entries were picked first, then a sample of the others. The call rests on the fitted dose curve; in most records, active means well fitted inhibition curve with a large enough effect; inconclusive means small, poorly fitted or top-dose-only effect, or effect the other way, or another doubt; inactive means no such curve, though single readings can be large or run the other way. Potencies beside an inconclusive call are fits to weak or partial responses and may not hold up.
Potency means the concentration at half of the fitted maximal effect; tags describe the fitted curve by direction and shape.
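Wherever activity change, negative = inhibition is given: plate controls were uninhibited enzyme wells for no effect and no-enzyme background for full effect.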

Each compound was assayed against Lysosomal alpha-glucosidase (Homo sapiens) (UniProt P10253) (assay: qHTS Assay for Inhibitors of Human alpha-Glucosidase as a Potential Chaperone Treatment of Pompe Disease). Conditions: purified human GAA, 4-MU-alpha-glucoside fluorescence; activity change, negative = inhibition: at 76.9 µM (top of the series) unless noted.
In short: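 Compounds are titrated up to 77 uM against 4 nM human enzyme. Substrate 4-methylumbelliferyl-alpha-D-pyranoside (400 uM) reacts 20 min at room temperature in pH 5.0 buffer; liberated 4-methylumbelliferone is read at 440 nm.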
For `O=C1NC(=O)C(=Cc2ccc3ccccc3c2)C(=O)N1`, the Potency was inconclusive: 3.98 µM [inhibitor, partial curve]. `COCCN1Cc2cc(=O)n3c([nH]c4ccccc43)c2C1=N` was tested, and the Potency was inconclusive: 31.6 µM [activator, partial curve]. In the case of `Fc1ccc(C(OCCN2CCCC2)c2ccc(Br)cc2)cc1` (stereo not given), the activity change, negative = inhibition was inconclusive: -8.44% [inhibitor] [at 15.4 µM]. In the case of `CC(C)(C)c1ccc(CN2C(=O)CN=C(c3ccccc3)c3ccccc32)cc1`, the Potency was inconclusive: 56.2 µM [inhibitor, single point]. With `O=C(c1cc(-c2cccnc2)nc2ccc(Cl)cc12)N1CCC2(CC1)OCCO2` the Potency was inconclusive: 56.2 µM [inhibitor, single point]. In the case of `COc1ccc2c3c([nH]c2c1)C(C)=NCC3`, the Potency was inconclusive: 22.4 µM [activator, partial curve]. With `CC1CC(OP(O)(=S)c2ccc(N(C)C)cc2NC(=O)c2cccs2)CC(C)(C)C1` (stereo not given) the Potency was inconclusive: 56.2 µM [inhibitor, single point]. For `Cn1c2ccccc2c2c(C(=O)N3CCC4(CC3)OCCO4)cn(C3CCCC3)c(=O)c21`, the Potency was inconclusive: 35.5 µM [activator, single point]. With `Fc1ccc(C2=CCN(C(c3cccs3)c3nnnn3CCc3ccccc3)CC2)cc1` (stereo not given) the Potency was inconclusive: 56.2 µM [inhibitor, partial curve, poor fit]. With `C=CCN(CC=C)C(=O)Nc1ccc(OCC)cc1` the activity change, negative = inhibition was inconclusive: 17.6% [activator]. In the case of `CCOC(=O)c1ccc(NC(c2ccc(N(C)C)cc2)P(=O)(OC(C)C)OC(C)C)cc1` (stereo not given), the Potency was inconclusive: 44.7 µM [inhibitor, single point]. In the case of `CN(C)c1ccc(P(=S)(N(C)C)N(C)C)cc1`, the Potency was inconclusive: 50.1 µM [inhibitor, single point]. With `Nc1c(C(=O)NC2CCCC2)c2nc3ccccc3nc2n1CC1CCCO1` (stereo not given) the “activity change, negative = inhibition” value was inactive: -15.9%. `CC1=NN(c2ccccc2)C(=O)C1=C(C)C` was tested, and the Potency was inconclusive: 4.47 µM [inhibitor, full curve]. With `O=C(CSc1nnc2c3c4c(sc3ncn12)CCCC4)NCc1ccco1` the Potency was inconclusive: 7.94 µM [inhibitor, single point]. `CCCNC(=O)c1c(N)n(Cc2ccc3c(c2)OCO3)c2nc3ccccc3nc12` was tested, and the Potency was inconclusive: 25.1 µM [activator, partial curve]. `CN1CC(C(=O)c2ccc(Cl)cc2)C(c2ccccc2F)C1` (stereo not given) was tested, and the “activity change, negative = inhibition” value was inactive: 5.75%. In the case of `Cc1ncc(CN2CCCC(C(=O)c3cccc(Cl)c3)C2)s1` (stereo not given), the activity change, negative = inhibition was inconclusive: 16.4% [activator]. `O=C(c1ccc2c(c1)OCO2)N1CCC2(CC1)OCCO2` was tested, and the Potency was inconclusive: 56.2 µM [inhibitor, single point]. For `COCCCn1c(N)c(C(=O)OC(C)COC)c2nc3ccccc3nc21` (stereo not given), the Potency was inconclusive: 39.8 µM [activator, partial curve]. For `COc1cccc(/C=C2\N=C(c3cncc(Br)c3)OC2=O)c1`, the Potency was inconclusive: 1.12 µM [inhibitor, single point]. In the case of `CC(C(=O)c1ccc2ccccc2c1)N1CCCCC1` (stereo not given), the Potency was inconclusive: 0.158 µM [inhibitor, full curve, poor fit]. In the case of `O=C(c1cccn2c(=O)c3ccc(Cl)cc3nc12)N1CCC2(CC1)OCCO2`, the Potency was inconclusive: 50.1 µM [inhibitor, single point]. In the case of `COc1cc(Cn2c(=O)oc3ccc(C)cc32)ccc1OC(C)C`, the Potency was inconclusive: 22.4 µM [inhibitor, partial curve]. For `O=C(N/N=C\C1C(=O)NC(=S)N(c2ccccc2)C1=O)c1ccc(O)cc1` (stereo not given), the Potency was inconclusive: 5.01 µM [inhibitor, single point]. For `O/N=C1\CCC2CN(C3CCCCC3)CC2C1` (stereo not given), the activity change, negative = inhibition was inconclusive: -17.3% [inhibitor]. `Cc1c(OCC(F)(F)F)ccnc1CS(=O)c1nc2ccccc2[nH]1` (stereo not given) was tested, and the Potency was inconclusive: 12.6 µM [inhibitor, single point]. `CCOC(=O)c1c(NS(=O)(=O)c2ccccc2)n(CCCOC)c2nc3ccccc3nc12` was tested, and the Potency was inconclusive: 28.2 µM [activator, partial curve]. `COP(=O)(OC)c1nc(-c2cccc3ccccc23)oc1N1CCCCC1` was tested, and the Potency was inconclusive: 35.5 µM [activator, partial curve]. In the case of `COc1cc(CN2CCCC(C(=O)c3sccc3C)C2)cc(OC)c1O` (stereo not given), the activity change, negative = inhibition was inconclusive: 15.5% [activator]. With `CCNCC1(c2ccc(OC)c(OC)c2)CCCC1` the Potency was inconclusive: 56.2 µM [inhibitor, partial curve, poor fit]. With `CCC1(C)OC(c2ccccc2)=C/C(=C/C=C2C(=O)NC(=O)NC2=O)O1` (stereo not given) the activity change, negative = inhibition was inconclusive: -15.3% [inhibitor]. For `COc1ccc(Cn2c(N)c(C(=O)NCc3ccco3)c3nc4ccccc4nc32)cc1OC`, the Potency was inconclusive: 20 µM [activator, partial curve, poor fit]. `Cc1nn(Cc2ccccc2)c(C)c1C(=O)NCc1ccccc1F` was tested, and the activity change, negative = inhibition was inconclusive: -17.3% [inhibitor]. `N=C1c2ccccc2CN1NC(=O)c1ccc(Cl)cc1` was tested, and the Potency was inconclusive: 12.6 µM [inhibitor, single point]. With `O=c1c2ccccc2nc(N2CCCC2)n1-c1ccc(Cl)cc1` the Potency was inconclusive: 50.1 µM [activator, single point]. In the case of `Oc1ccc(/C=N/NP(=S)(c2ccccc2)c2ccccc2)cc1O`, the “activity change, negative = inhibition” value was inactive: -6.93%. `N#CC1=C(N)Oc2c(c(=O)oc3ccccc23)C1c1ccc([N+](=O)[O-])o1` (stereo not given) was tested, and the Potency was inconclusive: 7.08 µM [inhibitor, partial curve]. With `CCN1CCN(C(=O)Cc2ccccc2OC)CC1` the activity change, negative = inhibition was inconclusive: 10.9% [activator]. `COc1ccc(Cc2nccc3cc(OC)c(OC)cc23)cc1OC` was tested, and the activity change, negative = inhibition was inactive: -6.69% [at 15.4 µM]. In the case of `CN(C)/C=c1\sc2c(C#N)cc(C(=O)c3ccc(Br)cc3)n2c1=O`, the Potency was inconclusive: 56.2 µM [inhibitor, single point]. In the case of `O=C(Nc1ccc(Cl)cc1C(=O)c1ccccc1)c1ccc(Br)o1`, the Potency was inconclusive: 56.2 µM [inhibitor, single point]. In the case of `COc1cc(/C=C2\C(=O)NC(=O)N(c3ccccc3)C2=O)cc(OC)c1O`, the “activity change, negative = inhibition” value was inactive: -5.49%. For `Cc1cc(OCCCC(=O)NCc2cccs2)ccc1Cl`, the Potency was inconclusive: 56.2 µM [inhibitor, single point]. With `COC(=O)c1c(C)[nH]c(C(=O)C(C)[N+]23CCN(CC2)CC3)c1C` (stereo not given) the Potency was inconclusive: 0.178 µM [activator, full curve, poor fit]. For `CC(=O)c1cccc(NC2=NCC(C)S2)c1` (stereo not given), the Potency was inconclusive: 56.2 µM [inhibitor, single point]. For `CCCCCCn1c(N)c(C(=O)NCCN2CCOCC2)c2nc3ccccc3nc21`, the Potency was inconclusive: 31.6 µM [activator, partial curve]. For `CC1(C)OC(c2ccccc2)=C/C(=C/C=C2C(=O)NC(=S)NC2=O)O1`, the Potency was inconclusive: 39.8 µM [inhibitor, single point]. With `CN(CCCCC(=O)/C=N/O)Cc1ccccc1` (tested in a mixture with another compound) the Potency was inconclusive: 12.6 µM [inhibitor, single point]. In the case of `Cc1cccc(OP(=O)(Oc2cccc(C)c2)OC(c2ccccc2)C(F)(F)F)c1` (stereo not given), the Potency was inconclusive: 44.7 µM [inhibitor, partial curve, poor fit]. For `CCCn1ncc(CN2CCCC(C(=O)c3cccc(OC)c3)C2)c1C` (stereo not given), the activity change, negative = inhibition was inconclusive: 7.53% [activator]. For `N=C1C(c2ccccc2)=C(O)CN1Cc1ccco1`, the Potency was inconclusive: 4.47 µM [inhibitor, single point]. With `Cc1cc(/C=C2\C(=O)NC(=O)N(c3ccc(F)cc3)C2=O)c(C)n1-c1ccc(C(=O)O)cc1` the Potency was active: 28.2 µM. In the case of `COc1cccc(N2C(=O)NC(=O)/C(=C/c3ccc4c5c(cccc35)CC4)C2=O)c1`, the Potency was inconclusive: 22.4 µM [activator, partial curve]. In the case of `Cc1ccc(N2C(=O)NC(=O)/C(=C/C=C/c3ccco3)C2=O)cc1`, the Potency was inconclusive: 0.631 µM [inhibitor, full curve, poor fit]. In the case of `C=CCn1c(O)c(C(CC)=NCc2cccnc2)c(=O)[nH]c1=O`, the Potency was inconclusive: 5.62 µM [inhibitor, single point]. With `Cc1cc(-c2n[nH]c(=S)n2CC(C)C)cs1` the Potency was inconclusive: 2.82 µM [inhibitor, single point]. `O=c1[nH]c(=O)n(CCC2=CCCCC2)c(O)c1C=Nc1cccc(F)c1` was tested, and the activity change, negative = inhibition was inconclusive: -17.8% [inhibitor]. `CCCCNC(=O)c1c(N)n(Cc2ccc3c(c2)OCO3)c2nc3ccccc3nc12` was tested, and the Potency was inconclusive: 25.1 µM [activator, partial curve]. For `CCOC(=O)c1c(N)n(CCN2CCOCC2)c2nc3ccccc3nc12`, the Potency was inconclusive: 35.5 µM [activator, partial curve]. For `COC(=O)C1C2c3ccccc3OC1(C)N=c1s/c(=C/c3cnn(C)c3)c(=O)n12` (stereo not given), the Potency was inconclusive: 31.6 µM [inhibitor, single point]. `COc1ccc(CCNC2CCCCC2)cc1OC` was tested, and the activity change, negative = inhibition was inconclusive: 18.1% [activator]. For `O=C1C(=O)c2ccccc2-c2ccccc21`, the “activity change, negative = inhibition” value was inactive: -10.2%. With `COc1cc2c(cc1OC)-c1c(OC)c(OC)cc3c1[C@H](C2)N(C)CC3` the “activity change, negative = inhibition” value was inactive: -14.8%. With `CCN(CC)CCCN=Cc1c(O)n(Cc2ccc(F)cc2)c(=O)[nH]c1=O` the Potency was inconclusive: 56.2 µM [activator, single point].
